Measurements as given in the antibiotic and cytotoxicity screens of Wong et al. (2023).
This is one part of the list.

test system: S. aureus RN4220; assay: growth inhibition call (relative growth <= 0.2); details: 50 µM

Question: Which growth inhibition call does the source give for `C[C@H](CO)N1C[C@H](C)[C@@H](CN(C)Cc2ccc(C(=O)O)cc2)OCCCC[C@H](C)Oc2ccc(NS(=O)(=O)c3ccc(Cl)cc3)cc2C1=O` here?
Answer: inactive

Question: For `COc1ccc(CN(C)C[C@@H]2OCCCC[C@@H](C)Oc3ccc(NC(=O)CCC(F)(F)F)cc3C(=O)N([C@@H](C)CO)C[C@H]2C)cc1`, which growth inhibition call is on record?
Answer: inactive

Question: `COC(=O)[C@@H](N)c1cccc(Cl)c1` was tested. Which growth inhibition call did it give?
Answer: inactive

Question: For `C[C@@H]1CN([C@@H](C)CO)C(=O)Cc2cc(NS(C)(=O)=O)ccc2O[C@@H]1CN(C)C(=O)Nc1ccc(F)cc1`, which growth inhibition call is on record?
Answer: inactive

Question: How did the growth inhibition call turn out when `C[C@@H]1CN([C@@H](C)CO)C(=O)c2cc(NC(=O)CCC(F)(F)F)ccc2O[C@@H]1CN(C)Cc1ccc(C(=O)Nc2ccccc2N)cc1` was run?
Answer: inactive

Question: `C[C@@H](C(=O)N(C)C[C@@H]1OCc2ccccc2-c2c(n(C)c3ccccc23)C(=O)N([C@@H](C)CO)C[C@@H]1C)c1ccccc1` was tested. Which growth inhibition call did it give?
Answer: inactive

Question: For `C[C@@H]1CN([C@H](C)CO)C(=O)c2cc(NC(=O)CCCCCC(=O)Nc3ccccc3N)ccc2O[C@@H]1CN(C)C(=O)Nc1ccccc1`, which growth inhibition call is on record?
Answer: inactive

Question: With `C1CCC(C(CC2CCCCN2)C2CCCCC2)CC1.O=C(O)C=CC(=O)O` (stereo not drawn) as the compound, how does the growth inhibition call read?
Answer: active
